Measured values: PubChem BioAssay AID652104 (National Center for Advancing Translational Sciences (NCATS), 2013)
The campaign covered roughly 410,000 compounds. About 7,200 (1.8%) were called active. Inconclusive means that the source gave no clear call. Such entries were picked first, then a sample of the others. The call rests on the fitted dose curve; in most records, active means well fitted activation curve with a large enough effect; inconclusive means small, poorly fitted or top-dose-only effect, or another doubt; inactive means no such curve, though single readings can be large or run the other way. Potencies of inconclusive entries are left out as doubtful fits.

experiment: qHTS of TDP-43 Inhibitors; details: TDP-43 expressing yeast growth rescue, BacTiter-Glo, 24 h; growth rescue (activation): at 46.1 µM (top of the series) unless noted; further: nearly all actives have a fitted effect of over 50% in size; on growth rescue (activation): % of control where 0% means no effect
In short: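 Luminescence from BacTiter-Glo reports growth of TDP-43-expressing yeast after 24 hr at 30 deg C with compound. Cells were raffinose-pregrown to mid-log, then seeded in galactose medium at OD600=0.02.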
Potency means the concentration at half of the fitted maximal effect; tags describe the fitted curve by direction and shape.

Row | Compound | Potency | growth rescue (activation)
1 | O=C(O)Cc1ccc(Oc2ncc(C(F)(F)F)cc2Cl)cc1 | active: 12.6 µM | 
2 | Cc1ccccc1C(=O)N/N=C/c1cccc2ccccc12 | inconclusive [activator, partial curve] | 
3 | CC(C)c1ccc(NC(=O)CSc2nc3ccccc3nc2N2CCCC2)cc1 | inconclusive [activator, full curve] | 
4 | COc1ccc(-c2cc(C(=O)NCc3ccc(C(F)(F)F)cc3)[nH]n2)c(C)c1 | inconclusive [activator, single point] | 
5 | COc1ccc(N(Cc2ccccc2)C(=O)c2nc(SC)ncc2Cl)cc1 | inconclusive [activator, single point] | 
6 | CCc1ccc(NC(=O)C(=O)NCC2CCCN2S(=O)(=O)c2cccs2)cc1 (stereo not drawn) | inconclusive [activator, partial curve, poor fit] | 
7 | FC(F)(F)c1ccc(C2[C@H]3CN(Cc4cccnc4)[C@H](c4ccccc4)C34CC2(c2ccccc2)C4)cc1 (stereo partly drawn) | inconclusive [activator, single point] | 
8 | CC(Sc1nnnn1C)C(=O)Nc1ccc(Oc2ccccc2)cc1 (stereo not drawn) | active: 15.8 µM | 
9 | COc1cccc(Cn2c(=O)n(-c3ccc(Br)cc3F)c(=O)c3sc4ccccc4c32)c1 | inconclusive [activator, partial curve] | 
10 | COc1cccc(/C=N/N2C(=O)CSC2=S)c1O | inconclusive [activator, partial curve] | 
11 | CCOC(=O)C1CCN(C(=O)c2cc3c(-c4ccc(OC)c(OC)c4)nn(C)c3s2)CC1 | active: 14.1 µM | 
12 | COC(=O)[C@]1(CC(C)C)N[C@H](c2ccc(-c3ccc(OC)cc3)cc2)[C@@H]2C(=O)N(C)C(=O)[C@@H]21 | inconclusive [activator, partial curve] | 
13 | CCCCC/C=C/C1=CC(=O)C[C@H](c2ccc(OC)c(OC)c2)C1 | active: 35.5 µM | 
14 | Cc1ccc(Cl)cc1N1C(=O)N(Cc2ccc(C#N)cc2)c2ccccc2S1(=O)=O | inconclusive [activator, partial curve] | 
15 | CCCCCn1c(=O)c(C(=O)OCC)c(Cl)c2ccccc21 |  | inactive: -8.57%
16 | CCc1ccc(C2NC(=O)c3ccccc3O2)cc1 (stereo not drawn) | inconclusive [activator, partial curve] | 
17 | O=C1CCCc2c1[nH]c1ccc(Br)cc21 | inconclusive [activator, partial curve] | 
18 | O=C1c2cccc3cc([N+](=O)[O-])cc(c23)C(=O)N1CC1CCCO1 (stereo not drawn) | inconclusive [activator, single point] | 
